Results published in PubChem BioAssay (NCI).
Values joined by “and” are separate entries in the source; they are usually repeats but may differ in a detail not shown here. Equal values may be shown once.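 Compound exposure: 48 hours, 5 concentrations, 96-well plates. Here, GI50 denotes the concentration required for 50% inhibition of growth. TGI denotes the concentration required for complete inhibition of growth.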

system: NCI-H322M lung; assay: growth of human tumour cells (NCI), 48 h

| SMILES | GI50 | TGI |
| --- | --- | --- |
| O=C(/C=C/Sc1cc(C(F)(F)F)cc(C(F)(F)F)c1)c1ccc(Cl)cc1 | 19.9 µM | 37.4 µM |
| O=S(=O)(/C=C/c1ccc(F)cc1)Cc1ccc(CS(=O)(=O)/C=C/c2ccc(F)cc2)cc1 |  | > 100 µM |
| O=C1C(Nc2ccc(Cl)cc2)=C(I)C(=O)c2ncccc21 | 3.08 µM | 13.1 µM |
| CC1CCC/C1=C(/I)C(=O)c1ccccc1 (centres undefined) |  | > 100 µM |
| COc1cc2ccnc3c2c(c1OC)-c1coc(SC)c1-3 |  | > 100 µM |
| O=C1c2cc3c(cc2[C@@H]2[C@H]1c1ccc([N+](=O)[O-])cc1C(=O)N2CCCBr)OCO3 | 0.076 µM | 6.02 µM |
| C/C(=N/NC(=S)N1CCCCC1)c1ccccc1O |  | > 31.6 µM |
| O=C1C[C@@H](C(=O)OCc2ccccc2)NC(=O)C[C@@H](C(=O)OCc2ccccc2)NC(=O)C[C@@H](C(=O)OCc2ccccc2)N1 |  | > 100 µM |
| COC(=O)C1(Cc2ccc3c(c2)CCC3)Cc2ccccc2C1O (centres undefined) |  | 36.9 µM |
| O=C(c1ccc(Cl)cc1Cl)C1[C@H]2C(=O)N(c3ccc(Cc4ccc(N5C(=O)[C@@H]6ON(c7ccccc7)C(C(=O)c7ccc(Cl)cc7Cl)[C@@H]6C5=O)cc4)cc3)C(=O)[C@H]2ON1c1ccccc1 (some centres undefined) |  | > 50 µM |
| CN1CCN(C(=O)C(C)(C)c2ccc(C(=O)Nc3cn4cc(-c5ccncc5)ccc4n3)cc2)CC1 | 0.338 µM | 6.42 µM |
| N/N=C(/C(=O)Nc1cccc(Cl)c1)C(C(=O)c1ccc(O)cc1O)C1OC(=O)c2ccccc21 (centres undefined) |  | > 100 µM |
| CC(C)(C)C(=O)OCC1C(=O)OCC1C(=O)N1Cc2cc3ccccc3nc2C1 (centres undefined) |  | 31.7 µM |
| COc1cc2c[n+](C)c3c4cc(OC)c(OC(C)C)cc4ccc3c2cc1OC |  | > 100 µM |
| NS(=O)(=O)c1ccc(/C=C/c2ccc(F)cc2)cc1 |  | > 100 µM |
| CCOc1cc2c(C(=O)CC)c(O)ccc2o1 |  | > 100 µM |
| C=C1C(O)C2C(=C(CC)C13CC3)C(=O)C(C)(C)C2OC (centres undefined) | > 100 µM | > 100 µM |
| COc1ccc(/C=C/c2cc(OC)c(OC)c(OC)c2)cc1 |  | 74.1 µM |
| CCCCCCC[CH2][Sn]([CH2]CCCCCCC)([O]c1cccc2cccnc12)[O]c1cccc2cccnc12 | 2.98 µM | 7.97 µM |
| CCCCOC(=O)C(NC(C(=O)OCCCC)c1cc(C(C)(C)C)c(O)c(C(C)(C)C)c1)c1cc(C(C)(C)C)c(O)c(C(C)(C)C)c1 (centres undefined) |  | > 100 µM |
| COC(C(=O)NN)c1ccccc1 (centres undefined) |  | > 100 µM |
| Cc1ccccc1C1OC(=O)c2ccc3ccccc3c21 (centres undefined) |  | 13.7 µM |
| OC(CCNC12CC3CC(CC(C3)C1)C2)c1ccccc1 (centres undefined) |  | > 100 µM |
| Cc1ccc(S(=O)(=O)c2c(COC(=O)c3cccc(C)c3)c(-c3ccccc3)nn2C)cc1 | > 100 µM | > 100 µM |
| CCCCOC(=O)N1CCN(/[N+]([O-])=N/Oc2ccc([N+](=O)[O-])cc2[N+](=O)[O-])CC1 | 11.6 µM | 25 µM |

| SMILES | GI50 | TGI |
| --- | --- | --- |
| CCOC(=O)c1nc2ccc(C(F)(F)F)cc2nc1Oc1cc(OC)c(OC)c(OC)c1 |  | > 100 µM |
| C=Cc1cncc(C#N)c1CCc1c(C#N)cncc1C=C | > 100 µM | > 100 µM |
| C[C@H](NC(=O)C(Cc1ccccc1)(Cc1ccc(O)cn1)NC(=O)c1ccccc1)c1ccccc1 (some centres undefined) |  | 38.4 µM |
| COC(OC)[C@@H]1OC[C@H](n2cnc3c(N)ncnc32)[C@H]1O |  | > 100 µM |
| COc1ccc2c(c1)C(=O)c1ccc(OC)cc1C2=S |  | > 100 µM |
| c1cncc(C2N3CCCCC3[C@@H]3c4[nH]c5ccccc5c4CCN23)c1 (some centres undefined) |  | > 100 µM |
| COc1cc(OC)c(C/C=C/c2ccccc2)cc1O |  | 29.4 µM |
| O=C(NCCCCCCCCCCCCNC(=O)Nc1cccc2ccccc12)Nc1cccc2ccccc12 |  | 32.9 µM |
| CCCC(=O)NC(Nc1ccc(S(=O)(=O)Nc2cc(C)on2)cc1)(C(=O)OCC)C(F)(F)F (centres undefined) |  | > 100 µM |
| CC1(C)CC(O)C(C)(C)[C@@H](O)C1 (some centres undefined) |  | > 100 µM |
| Cn1ncnc1[C@H]1c2n[nH]c(=O)c3cc(F)cc(c23)N[C@@H]1c1ccc(F)cc1 | > 100 µM | > 100 µM |
| COc1cc([C@@H]2c3cc4c(cc3[C@@H](c3c(O)cc(O)c5c3O[C@H](c3ccc(O)c(O)c3)[C@@H](O)C5)[C@H]3COC(=O)[C@H]23)OCO4)cc(OC)c1OC |  | > 100 µM |
| COc1ccc2c(c1)NC1=C(C(=O)OC1)C2c1cc(OC)c2c(c1)OCO2 (centres undefined) | 0.0583 µM | > 100 µM |
| O=C1NC(Nc2ccccc2)=NC(C(F)(F)F)(C(F)(F)F)N1 |  | > 100 µM |
| Cc1cc(F)ccc1S(=O)(=O)Nc1cc(-c2c(O)ccc3ccccc23)c(O)c2ccccc12 | 6.92 µM | 20 µM |
| Cc1c(C(=O)Nc2ccccc2)sc2ncn(Cc3cccc(Cl)c3)c(=O)c12 | 47.2 µM | > 100 µM |
| COc1ccc2c3c1OC1C(=O)C=CC4(CC2)N(C)CCC314 (centres undefined) |  | > 100 µM |
| CCOc1ccc(N/C(=C(/C(Cl)=C(/Cl)N(CC)CC)[N+](=O)[O-])n2nnc3ccccc32)cc1 |  | > 100 µM |
| Cc1cccc(Nc2nn3c(=O)c4c5c(sc4nc3s2)CCCC5)c1 |  | > 100 µM |
| O=c1cnn(C2OC(CO)C(O)C2O)c(=S)[nH]1 (centres undefined) |  | > 100 µM |
| CC1=C(C(=O)Nc2ccc3n[nH]c(C)c3c2)C(c2ccc(C(F)(F)F)cc2)CC(=O)N1 (centres undefined) | > 25 µM | > 25 µM |
| Cc1cc2c(cc1Cl)SC1=NN(C)C(C)N1S2(=O)=O (centres undefined) | > 100 µM | > 100 µM |
| OC1(c2ccccc2)CCN(Cc2c[nH]c3ccccc23)CC1 |  | > 100 µM |
| C=C1CC2OC(=O)C(=C)C2C(O)C2C(=C)CCC12 (centres undefined) |  | 24.2 µM |
| C#CC#CC#CC#CC#CC#CC#CC#CCC1OCC(COC(=O)O[C@@H](C(=O)O[C@H]2C[C@@]3(O)[C@@H](OC(=O)c4ccccc4)[C@@H]4[C@]5(OC(C)=O)CO[C@@H]5C[C@H](O)[C@@]4(C)C(=O)[C@H](OC(C)=O)C(=C2C)C3(C)C)[C@@H](NC(=O)c2ccccc2)c2ccccc2)O1 (some centres undefined) | 0.307 µM | > 33.3 µM |

| SMILES | GI50 | TGI |
| --- | --- | --- |
| O=C(Nc1cccc(-n2cc(-c3ccncc3)c(-c3ccc(Cl)c(O)c3)n2)c1)Nc1cc(C(F)(F)F)cc(C(F)(F)F)c1 | 1.04 µM | 3.08 µM |
| NNC(=O)C1CCC(=O)N1S(=O)(=O)c1ccccc1 (centres undefined) |  | > 100 µM |
| [Cl][Sn]([c]1ccccc1)([c]1ccccc1)[c]1ccccc1 | 0.262 µM and 0.101 µM and 0.033 µM | 0.715 µM and 0.217 µM and 0.153 µM |
| COc1cc(C(=O)c2c(-c3ccccc3)oc3c(OC)cccc23)cc(OC)c1OC | 0.135 µM | > 100 µM |
| COC(=O)c1cc(=O)[nH]c(=O)[nH]1 |  | > 100 µM |
| NCCCC[C@@H]1NC(=O)[C@H]2CCCN2C(=O)[C@H](Cc2ccccc2)CNC(=O)[C@H](Cc2ccccc2)NC1=O | > 37.5 µM | > 37.5 µM |
| Cc1ccc2c(=O)cc(-c3ccc(Cl)s3)[nH]c2n1 |  | > 100 µM |
| CC(=O)NCCC1CN(C(=O)/C=C/I)c2ccccc21 (centres undefined) |  | 27.4 µM |
| NC(=O)c1cccc([N+](=O)[O-])c1 |  | > 100 µM |
| O=C1NNC2(C(=O)N1)c1ccccc1-c1ccccc12 |  | > 10 µM |
| Cc1[nH]c2ccccc2c1CCCO | > 100 µM | > 100 µM |
| Cc1cc(NC(=O)NC(=O)c2ccccc2NC(=O)C(C)N)ccc1Oc1ncc(Br)cn1 (centres undefined) |  | 60.8 µM |
| CC(C)=NN/C(=N\S(=O)(=O)c1ccc(Oc2cccc(Cl)c2C#N)cc1)Nc1ccc(Cl)cc1 |  | > 100 µM |
| O=S(=O)(c1ccc(NC2=NC(c3ccc(O)cc3)(c3ccccc3O)c3ccccc32)cc1)c1ccc(NC2=NC(c3ccc(O)cc3)(c3ccccc3O)c3ccccc32)cc1 (centres undefined) |  | 23.1 µM |
| Cc1nc(Nc2ccccc2)sc1C(=O)CC(=O)C(=O)Nc1c(C(C)C)cccc1C(C)C |  | > 100 µM |
| COc1cccc(CCN2CCN(CCCc3ccccc3)CC2)c1 |  | > 100 µM |
| COc1c(O)c2c3c(cc(C)cc3c1C(C)C)OC2 |  | > 100 µM |
| Cc1cc2c(C(C)C)c(O)c(O)cc2c(O)c1-c1c(C)cc2c(C(C)C)c(O)c(O)cc2c1O | 22.9 µM | 61.7 µM |
| CC1C(=O)N(c2ccccc2)NC12CCCc1ccccc12 (centres undefined) |  | > 100 µM |
| CC1=C(c2cccc(O)c2)[C@H](c2ccc(OCCN3CC(CF)C3)cc2)Oc2ccc(O)cc21 | 11.7 µM | 23.9 µM |
| O=C1C(c2ccccc2)=C(O)c2cccc3cccc1c23 |  | > 100 µM |
| O=S(Nc1ccccc1)c1ccc(N2CCOCC2)cc1 (centres undefined) |  | > 100 µM |
| C[N+](C)(C)c1ccc(C(N)C(=O)O)cc1 (centres undefined) |  | > 100 µM |
| O=C1CCCCC1S(=O)(=O)c1ccccc1 (centres undefined) |  | > 100 µM |
| CC(C)CNc1nc2ncnc(N)c2[nH]1 |  | > 100 µM |

| SMILES | GI50 | TGI |
| --- | --- | --- |
| OCCO/N=C1\C(c2c(O)[nH]c3ccccc23)=Nc2ccccc21 |  | > 100 µM |
| COc1ccc(CC(N)c2ccc(OC)cc2)cc1 (centres undefined) |  | > 100 µM |
| CSC1=C(N)C(=O)c2[nH]cc(CO)c2C1=N | 0.173 µM | 0.313 µM |
| C=C[C@@H](C)[C@H](NS(=O)(=O)c1ccc(C)cc1)C(=O)OCC |  | > 100 µM |
| Cc1csc(NC23CC4CC(CC(C4)C2)C3)[n+]1C(P(=O)([O-])O)P(=O)(O)O (centres undefined) |  | > 100 µM |
| Cc1cn(C2CC3C(COCN3O)O2)c(=O)[nH]c1=O (centres undefined) |  | > 100 µM |
| Cc1cc(-c2nc3cc(F)ccc3s2)ccc1NC(=O)[C@@H](N)CCCCN |  | 13.8 µM |
| COc1ccc(C2=Nc3cc(C)c(C)cc3NC(c3ccccc3)C2)cc1 (centres undefined) |  | > 100 µM |
| C[n+]1cccc2c(=O)c3ccccc3oc21 |  | > 100 µM |
| CCOC(=O)/C(C1=NCCN1)=C(\O)c1ccccc1 |  | > 100 µM |
| Cc1ccc(OCC2OC(n3cnc4nc(N)nc(Cl)c43)CC2Oc2ccc(C)cc2)cc1 (centres undefined) |  | 53.9 µM |
| C/C(O)=C(/C=N/C(=S)Nc1ccc(S(N)(=O)=O)cc1)C(=O)Nc1ccccc1C |  | > 100 µM |
| C[C@H]1CC[C@@]2(NC1)O[C@H]1C[C@H]3[C@@H]4CC[C@H]5C[C@@H](O)CC[C@]5(C)[C@H]4CC[C@]3(C)[C@H]1[C@@H]2C | 28.8 µM | 50 µM and > 100 µM |
| CC(=O)N1CC(C)(C)c2c(C)c(O)c(C)c(C)c21 |  | > 100 µM |
| Nc1ccc(S(=O)(=O)c2ccc(NCN3C(=O)NC(=O)C(=O)C3=O)cc2)cc1 |  | > 100 µM |
| OCC(O)C(O)C(O)C(O)c1nc2ccc(Cl)cc2[nH]1 (centres undefined) |  | > 100 µM |
| O=C(Nc1ccc(Br)cc1F)c1cc(I)ccc1O | 2.51 µM | > 100 µM |
| O=C1Nc2ccc(Br)cc2C1=Nc1cccnc1 |  | > 100 µM |
| NC(=O)NNc1nc(-c2ccccc2)cs1 |  | > 100 µM |
| C=C/C(C)=C\CC1[C@](C)(O)CC[C@H]2C(C)(C)C(=O)CC[C@]12C (some centres undefined) |  | > 100 µM |
| COc1cc2c(cc1OC)[C@H](C)N1CCc3cc(OC)c(OC)cc3[C@@H]1C2 |  | > 100 µM |
| O=c1cc(N2CCCC2)[nH]c(=O)n1Cc1ccccc1 |  | > 100 µM |
| C[C@@H]1[C@H](C)N1CC(O)Cn1ccnc1[N+](=O)[O-] (some centres undefined) |  | > 100 µM |
